{
  "source": "the supplement of paper PMC8728848",
  "binders": {"B1": {"name": "SP16665A-bot-344-23-344 (Bacteroides ovatus) (protein)", "chain": "SDNEFPDFDYQTVYFANQYGLRTIELGESEFVDNTLDNQHKMVIKAAWGGGYTNRNNVVINFKVDESLCDNLYFKDTDQPLVPMPASYYTLASDRIAIPKGQIMAGVEVQLTDDFFADEKSISENYVIPLLMTNVQGADSILQGKPVVENPVLTNAGDWSILPQNFVLYAVKYVNPWHGEYLRRGIDHATVAGTSKDIIRHEQFVENDEVVNISTKSMKDNLLTLKTKDESGKDISYTVRLSFAEDGSCTVHSGSQNVVVSGSGKFVSKGEKNSLGGKDRNAIYLDYTVNLTDNNIQLATKDTLVLRTRNVYGGKSLEVVRK"}},
  "experiment_in_all_cases": "glycan array binding signal (z-score within array); higher = stronger binding",
  "conditions_in_all_cases": "glycan notation: IUPAC condensed, linker removed",
  "key": {"Kdn(a2-3)Gal(b1-4)Glc": {"molecular_target": "Kdn(a2-3)Gal(b1-4)Glc", "method_in_brief": "(§1)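 The binding signal is a Z-score computed within each array and averaged over linkers. Arrays of the same protein sequence at different concentrations or buffers were also averaged together. Data originate from 3228 arrays in the Consortium for Functional Glycomics database, kept only where the protein sequence was available.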"}, "Kdn(a2-3)Gal(b1-4)GlcNAc": {"molecular_target": "Kdn(a2-3)Gal(b1-4)GlcNAc", "method_in_brief": "as §1"}, "[1]": {"molecular_target": "Kdn(a2-3)Gal(b1-4)[Fuc(a1-3)]GlcNAc", "method_in_brief": "as §1"}, "Kdn(a2-6)Gal(b1-4)GlcNAc": {"molecular_target": "Kdn(a2-6)Gal(b1-4)GlcNAc", "method_in_brief": "as §1"}, "[2]": {"molecular_target": "Man(a1-2)Man(a1-2)Man(a1-3)Man", "method_in_brief": "as §1"}, "[3]": {"molecular_target": "Man(a1-2)Man(a1-2)Man(a1-6)[Man(a1-3)]Man", "method_in_brief": "as §1"}, "Man(a1-2)Man(a1-3)Man": {"molecular_target": "Man(a1-2)Man(a1-3)Man", "method_in_brief": "as §1"}, "[4]": {"molecular_target": "Man(a1-2)Man(a1-3)[Man(a1-2)Man(a1-6)]Man", "method_in_brief": "as §1"}, "[5]": {"molecular_target": "Man(a1-2)Man(a1-3)[Man(a1-2)Man(a1-6)]Man(a1-6)[Man(a1-2)Man(a1-2)Man(a1-3)]Man", "method_in_brief": "as §1"}, "[6]": {"molecular_target": "Man(a1-2)Man(a1-3)[Man(a1-2)Man(a1-6)]Man(a1-6)[Man(a1-2)Man(a1-2)Man(a1-3)]Man(b1-4)GlcNAc(b1-4)GlcNAc", "method_in_brief": "as §1"}, "[7]": {"molecular_target": "Man(a1-2)Man(a1-3)[Man(a1-6)]Man(a1-6)[Man(a1-2)Man(a1-3)]Man(b1-4)GlcNAc(b1-4)GlcNAc", "method_in_brief": "as §1"}, "[8]": {"molecular_target": "Man(a1-2)Man(a1-6)[Man(a1-3)]Man(a1-6)[Man(a1-2)Man(a1-2)Man(a1-3)]Man", "method_in_brief": "as §1"}, "[9]": {"molecular_target": "Man(a1-2)Man(a1-6)[Man(a1-3)]Man(a1-6)[Man(a1-2)Man(a1-2)Man(a1-3)]Man(b1-4)GlcNAc(b1-4)GlcNAc", "method_in_brief": "as §1"}, "Man(a1-3)[Man(a1-6)]Man": {"molecular_target": "Man(a1-3)[Man(a1-6)]Man", "method_in_brief": "as §1"}, "[10]": {"molecular_target": "Man(a1-3)[Man(a1-6)]Man(a1-6)[Man(a1-2)Man(a1-3)]Man(b1-4)GlcNAc(b1-4)GlcNAc", "method_in_brief": "as §1"}, "[11]": {"molecular_target": "Man(a1-3)[Man(a1-6)]Man(a1-6)[Man(a1-3)]Man", "method_in_brief": "as §1"}, "[12]": {"molecular_target": "Man(a1-3)[Man(a1-6)]Man(a1-6)[Man(a1-3)]Man(b1-4)GlcNAc(b1-4)GlcNAc", "method_in_brief": "as §1"}, "[13]": {"molecular_target": "Man(a1-3)[Man(a1-6)]Man(b1-4)GlcNAc(b1-4)GlcNAc", "method_in_brief": "as §1"}, "[14]": {"molecular_target": "Man(a1-3)[Man(a1-6)]Man(b1-4)GlcNAc(b1-4)[Fuc(a1-6)]GlcNAc", "method_in_brief": "as §1"}, "Man(a1-6)Man": {"molecular_target": "Man(a1-6)Man", "method_in_brief": "as §1"}, "Man(b1-4)GlcNAc": {"molecular_target": "Man(b1-4)GlcNAc", "method_in_brief": "as §1"}, "MurNAc(b1-4)GlcNAc": {"molecular_target": "MurNAc(b1-4)GlcNAc", "method_in_brief": "as §1"}, "Neu5Ac(a2-3)Gal": {"molecular_target": "Neu5Ac(a2-3)Gal", "method_in_brief": "as §1"}, "[15]": {"molecular_target": "Neu5Ac(a2-3)Gal(b1-3)GalNAc", "method_in_brief": "as §1"}, "[16]": {"molecular_target": "Neu5Ac(a2-3)Gal(b1-3)GalNAc(b1-3)Gal(a1-4)Gal(b1-4)Glc", "method_in_brief": "as §1"}, "[17]": {"molecular_target": "Neu5Ac(a2-3)Gal(b1-3)GalNAc(b1-4)[Neu5Ac(a2-3)]Gal(b1-4)Glc", "method_in_brief": "as §1"}, "[18]": {"molecular_target": "Neu5Ac(a2-3)Gal(b1-3)GalNAc(b1-4)[Neu5Ac(a2-8)Neu5Ac(a2-3)]Gal(b1-4)Glc", "method_in_brief": "as §1"}, "[19]": {"molecular_target": "Neu5Ac(a2-3)Gal(b1-3)GalNAc6S", "method_in_brief": "as §1"}, "[20]": {"molecular_target": "Neu5Ac(a2-3)Gal(b1-3)GlcNAc", "method_in_brief": "as §1"}, "[21]": {"molecular_target": "Neu5Ac(a2-3)Gal(b1-3)GlcNAc(b1-2)Man", "method_in_brief": "as §1"}, "[22]": {"molecular_target": "Neu5Ac(a2-3)Gal(b1-3)GlcNAc(b1-2)Man(a1-3)[GlcNAc(b1-4)][Neu5Ac(a2-3)Gal(b1-3)GlcNAc(b1-2)Man(a1-6)]Man(b1-4)GlcNAc(b1-4)GlcNAc", "method_in_brief": "as §1"}, "[23]": {"molecular_target": "Neu5Ac(a2-3)Gal(b1-3)GlcNAc(b1-2)Man(a1-3)[Neu5Ac(a2-3)Gal(b1-3)GlcNAc(b1-2)Man(a1-6)]Man(b1-4)GlcNAc(b1-4)GlcNAc", "method_in_brief": "as §1"}, "[24]": {"molecular_target": "Neu5Ac(a2-3)Gal(b1-3)GlcNAc(b1-3)Gal(b1-3)GlcNAc", "method_in_brief": "as §1"}, "[25]": {"molecular_target": "Neu5Ac(a2-3)Gal(b1-3)GlcNAc(b1-3)Gal(b1-4)GlcNAc", "method_in_brief": "as §1"}, "[26]": {"molecular_target": "Neu5Ac(a2-3)Gal(b1-3)GlcNAc(b1-3)GalNAc", "method_in_brief": "as §1"}, "[27]": {"molecular_target": "Neu5Ac(a2-3)Gal(b1-3)GlcNAc(b1-4)Gal(b1-4)Glc", "method_in_brief": "as §1"}, "[28]": {"molecular_target": "Neu5Ac(a2-3)Gal(b1-3)GlcNAc(b1-6)GalNAc", "method_in_brief": "as §1"}, "[29]": {"molecular_target": "Neu5Ac(a2-3)Gal(b1-3)GlcNAc6S", "method_in_brief": "as §1"}},
  "note": "Some of the results follow.",
  "data": [
    {"binder": "B1", "values": [
      {"measurement": "glycan array binding signal (z-score)", "setting": "Kdn(a2-3)Gal(b1-4)Glc", "value": -0.005},
      {"measurement": "glycan array binding signal (z-score)", "setting": "Kdn(a2-3)Gal(b1-4)GlcNAc", "value": -0.185},
      {"measurement": "glycan array binding signal (z-score)", "setting": "[1]", "value": -0.264},
      {"measurement": "glycan array binding signal (z-score)", "setting": "Kdn(a2-6)Gal(b1-4)GlcNAc", "value": -0.417},
      {"measurement": "glycan array binding signal (z-score)", "setting": "[2]", "value": -0.468},
      {"measurement": "glycan array binding signal (z-score)", "setting": "[3]", "value": -0.281},
      {"measurement": "glycan array binding signal (z-score)", "setting": "Man(a1-2)Man(a1-3)Man", "value": 0.048},
      {"measurement": "glycan array binding signal (z-score)", "setting": "[4]", "value": 0.074},
      {"measurement": "glycan array binding signal (z-score)", "setting": "[5]", "value": 0.464},
      {"measurement": "glycan array binding signal (z-score)", "setting": "[6]", "value": -0.19},
      {"measurement": "glycan array binding signal (z-score)", "setting": "[7]", "value": -0.204},
      {"measurement": "glycan array binding signal (z-score)", "setting": "[8]", "value": -0.563},
      {"measurement": "glycan array binding signal (z-score)", "setting": "[9]", "value": -0.087},
      {"measurement": "glycan array binding signal (z-score)", "setting": "Man(a1-3)[Man(a1-6)]Man", "value": -0.441},
      {"measurement": "glycan array binding signal (z-score)", "setting": "[10]", "value": 0.003},
      {"measurement": "glycan array binding signal (z-score)", "setting": "[11]", "value": 0.018},
      {"measurement": "glycan array binding signal (z-score)", "setting": "[12]", "value": -0.618},
      {"measurement": "glycan array binding signal (z-score)", "setting": "[13]", "value": -0.053},
      {"measurement": "glycan array binding signal (z-score)", "setting": "[14]", "value": -0.355},
      {"measurement": "glycan array binding signal (z-score)", "setting": "Man(a1-6)Man", "value": 0.306},
      {"measurement": "glycan array binding signal (z-score)", "setting": "Man(b1-4)GlcNAc", "value": 0.383},
      {"measurement": "glycan array binding signal (z-score)", "setting": "MurNAc(b1-4)GlcNAc", "value": -0.317},
      {"measurement": "glycan array binding signal (z-score)", "setting": "Neu5Ac(a2-3)Gal", "value": -0.314},
      {"measurement": "glycan array binding signal (z-score)", "setting": "[15]", "value": 1.94},
      {"measurement": "glycan array binding signal (z-score)", "setting": "[16]", "value": -0.171},
      {"measurement": "glycan array binding signal (z-score)", "setting": "[17]", "value": -0.366},
      {"measurement": "glycan array binding signal (z-score)", "setting": "[18]", "value": -0.26},
      {"measurement": "glycan array binding signal (z-score)", "setting": "[19]", "value": -0.272},
      {"measurement": "glycan array binding signal (z-score)", "setting": "[20]", "value": -0.033},
      {"measurement": "glycan array binding signal (z-score)", "setting": "[21]", "value": -0.426},
      {"measurement": "glycan array binding signal (z-score)", "setting": "[22]", "value": -0.338},
      {"measurement": "glycan array binding signal (z-score)", "setting": "[23]", "value": -0.508},
      {"measurement": "glycan array binding signal (z-score)", "setting": "[24]", "value": -0.321},
      {"measurement": "glycan array binding signal (z-score)", "setting": "[25]", "value": 0.11},
      {"measurement": "glycan array binding signal (z-score)", "setting": "[26]", "value": -0.085},
      {"measurement": "glycan array binding signal (z-score)", "setting": "[27]", "value": -0.393},
      {"measurement": "glycan array binding signal (z-score)", "setting": "[28]", "value": -0.333},
      {"measurement": "glycan array binding signal (z-score)", "setting": "[29]", "value": 0.047}
    ]}
  ]
}
